The other results are listed elsewhere or left out. Repeats are few or missing, and single values can be far off.

Some test systems named below: WM115; WM1716; WM1745; WM3526; WM3619; WM451Lu.
What all share (test): cell count relative to DMSO control; melanoma cells; higher = more viable cells
What all share (conditions): library dose: low library concentration; 72 h
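Further: cell number obtained by counting DAPI-stained nuclei in high-throughput microscope images with image analysis software, screen run in 1,536-well plates.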

On to `COc1cc([C@@H]2c3cc4c(cc3[C@@H](O[C@@H]3O[C@@H]5CO[C@@H](C)O[C@H]5[C@H](O)[C@H]3O)[C@H]3COC(=O)[C@H]23)OCO4)cc(OC)c1O` [etoposide] + CCCCCCCCc1ccc(CCC(N)(CO)CO)cc1 [fingolimod] (first compound 0.02 µM, partner dose 2 µM), for which the cell count turned out to be 80.7% in the test with WM115; 64.8% in the test with WM1716; 75.1% in the test with WM1745; 78.8% in the test on WM3526; 65.2% in the test on WM3619; 91.2% in the test on WM451Lu.
Consider `COc1cc([C@@H]2c3cc4c(cc3[C@@H](O[C@@H]3O[C@@H]5CO[C@@H](C)O[C@H]5[C@H](O)[C@H]3O)[C@H]3COC(=O)[C@H]23)OCO4)cc(OC)c1O` [etoposide] + C[C@@H](Oc1cc(-c2cnn(C3CCNCC3)c2)cnc1N)c1c(Cl)ccc(F)c1Cl [Crizotinib] (first compound 0.02 µM, partner dose 0.2 µM), for which the cell count with WM115 is 92.4%; in the test on WM1716 it was 99.7%; with WM1745, 98.9%; in the test with WM3526, 79.6%; in the test with WM3619 it was 94%; with WM451Lu it was 117%.
As to `COc1cc([C@@H]2c3cc4c(cc3[C@@H](O[C@@H]3O[C@@H]5CO[C@@H](C)O[C@H]5[C@H](O)[C@H]3O)[C@H]3COC(=O)[C@H]23)OCO4)cc(OC)c1O` [etoposide] + CC(=O)O[C@@]12CO[C@@H]1C[C@H](O)[C@@]1(C)C(=O)[C@H](O)C3=C(C)[C@@H](OC(=O)[C@H](O)[C@@H](NC(=O)OC(C)(C)C)c4ccccc4)C[C@@](O)([C@@H](OC(=O)c4ccccc4)[C@H]21)C3(C)C [Docetaxel] (first compound 0.02 µM, partner dose 0.0001 µM), the cell count stood at 69.9% in the test on WM115; 45.4% in the test with WM1716; 86.5% with WM1745; 29.8% in the test with WM3526; 82.1% in the test on WM3619; 58.4% in the test on WM451Lu.
Turning to `CCN(CC)CCNC(=O)c1c(C)[nH]c(/C=C2\C(=O)Nc3ccc(F)cc32)c1C` [sunitinib] + Nc1cccc2c1CN(C1CCC(=O)NC1=O)C2=O [lenalidomide] (first compound 0.4 µM, partner dose 1 µM), the cell count in the test on WM115 is 108%; in the test with WM1716, 115%; with WM1745, 75.9%; with WM3526, 92.7%; in the test on WM3619, 111%; in the test with WM451Lu it was 105%.
In the case of `Cn1cnc2c(F)c(Nc3ccc(Br)cc3Cl)c(C(=O)NOCCO)cc21` [selumetinib] + Nc1nc(F)nc2c1ncn2[C@@H]1O[C@H](CO)[C@@H](O)[C@@H]1O [fludarabine] (first compound 0.015 µM, partner dose 0.2 µM), the cell count in the test with WM115 came to 101%; in the test on WM1716, 139%; in the test on WM1745 it was 95%; in the test with WM3526, 23%; in the test on WM3619, 89.7%; in the test with WM451Lu it was 53.5%.
Consider `COc1cc([C@@H]2c3cc4c(cc3[C@@H](O[C@@H]3O[C@@H]5CO[C@@H](C)O[C@H]5[C@H](O)[C@H]3O)[C@H]3COC(=O)[C@H]23)OCO4)cc(OC)c1O` [etoposide] + O=S(=O)(c1ccccc1)N(CC(F)(F)F)c1ccc(C(O)(C(F)(F)F)C(F)(F)F)cc1 [T0901317] (first compound 0.02 µM, partner dose 1.4 µM), for which the cell count with WM115 amounted to 92.9%; in the test on WM1716, 85.4%; in the test with WM1745 it was 84.6%; in the test with WM3526, 92.8%; with WM3619 it was 114%; in the test with WM451Lu, 129%.
As to `C[C@]1(O)C[C@@H](c2nc(-c3ccc4ccc(-c5ccccc5)nc4c3)c3c(N)nccn32)C1` + C[C@@H]1CCN(C(=O)CC#N)C[C@@H]1N(C)c1ncnc2[nH]ccc12 [CP690550] (first compound 0.4 µM, partner dose 1 µM), the cell count is 101% in the test on WM115; 110% in the test with WM1716; 111% in the test on WM1745; 79.9% in the test on WM3526; 102% with WM3619; 87.8% with WM451Lu.
Consider `COc1cc([C@@H]2c3cc4c(cc3[C@@H](O[C@@H]3O[C@@H]5CO[C@@H](C)O[C@H]5[C@H](O)[C@H]3O)[C@H]3COC(=O)[C@H]23)OCO4)cc(OC)c1O` [etoposide] + CCc1ccc(CCOc2ccc(CC3SC(=O)NC3=O)cc2)nc1 [pioglitazone] (first compound 0.02 µM, partner dose 2 µM), for which the cell count in the test on WM115 is 94.7%; in the test on WM1716 it was 94.7%; in the test on WM1745 it was 91.7%; with WM3526 it was 85.4%; with WM3619 it was 84.5%; in the test with WM451Lu, 93%.
For `COc1cc([C@@H]2c3cc4c(cc3[C@@H](O[C@@H]3O[C@@H]5CO[C@@H](C)O[C@H]5[C@H](O)[C@H]3O)[C@H]3COC(=O)[C@H]23)OCO4)cc(OC)c1O` [etoposide] + COc1cc2c(Oc3ccc4[nH]c(C)cc4c3F)ncnc2cc1OCCCN1CCCC1 [cediranib] (first compound 0.02 µM, partner dose 0.4 µM), the cell count is 101% in the test on WM115; 99.5% in the test on WM1716; 98.9% with WM1745; 87.1% in the test with WM3526; 86.9% with WM3619; 83.9% in the test on WM451Lu.
For `C[C@]1(O)C[C@@H](c2nc(-c3ccc4ccc(-c5ccccc5)nc4c3)c3c(N)nccn32)C1` + Cn1c(=O)n(-c2ccc(C(C)(C)C#N)cc2)c2c3cc(-c4cnc5ccccc5c4)ccc3ncc21 [NVP-BEZ235] (first compound 0.4 µM, partner dose 0.004 µM), the cell count turned out to be 88.5% with WM115; 90.5% in the test on WM1716; 77.4% in the test with WM1745; 79.6% in the test on WM3526; 80% in the test on WM3619; 87.1% in the test with WM451Lu.
On to `C[C@]1(O)C[C@@H](c2nc(-c3ccc4ccc(-c5ccccc5)nc4c3)c3c(N)nccn32)C1` + CO[C@H]1C[C@@H]2CC[C@@H](C)[C@@](O)(O2)C(=O)C(=O)N2CCCC[C@H]2C(=O)O[C@H]([C@H](C)C[C@@H]2CC[C@@H](OCCO)[C@H](OC)C2)CC(=O)[C@H](C)/C=C(\C)[C@@H](O)[C@@H](OC)C(=O)[C@H](C)C[C@H](C)/C=C/C=C/C=C/1C [everolimus] (first compound 0.4 µM, partner dose 0.02 µM), for which the cell count in the test on WM115 came out at 88.6%; with WM1716 it was 79.2%; in the test on WM1745, 67.9%; in the test with WM3526, 43.9%; with WM3619, 47.4%; in the test with WM451Lu it was 72.8%.
Consider `Cn1cnc2c(F)c(Nc3ccc(Br)cc3Cl)c(C(=O)NOCCO)cc21` [selumetinib] + CO[C@H]1C[C@@H]2CC[C@@H](C)[C@@](O)(O2)C(=O)C(=O)N2CCCC[C@H]2C(=O)O[C@H]([C@H](C)C[C@@H]2CC[C@@H](OCCO)[C@H](OC)C2)CC(=O)[C@H](C)/C=C(\C)[C@@H](O)[C@@H](OC)C(=O)[C@H](C)C[C@H](C)/C=C/C=C/C=C/1C [everolimus] (first compound 0.015 µM, partner dose 0.02 µM), for which the cell count was found to be 68.3% with WM115; 79.9% in the test with WM1716; 75.6% in the test on WM1745; 58.9% in the test on WM3526; 64% with WM3619; 83.1% in the test with WM451Lu.

These data come from the supplement of paper PMC4604168 (melanoma cell lines).
